Test results: PMC12136788
Some of the results follow.

T1: UNK ZnF1-6 (called full-length) (human, UniProt Q9C0B0 30-357)
T1 sequence: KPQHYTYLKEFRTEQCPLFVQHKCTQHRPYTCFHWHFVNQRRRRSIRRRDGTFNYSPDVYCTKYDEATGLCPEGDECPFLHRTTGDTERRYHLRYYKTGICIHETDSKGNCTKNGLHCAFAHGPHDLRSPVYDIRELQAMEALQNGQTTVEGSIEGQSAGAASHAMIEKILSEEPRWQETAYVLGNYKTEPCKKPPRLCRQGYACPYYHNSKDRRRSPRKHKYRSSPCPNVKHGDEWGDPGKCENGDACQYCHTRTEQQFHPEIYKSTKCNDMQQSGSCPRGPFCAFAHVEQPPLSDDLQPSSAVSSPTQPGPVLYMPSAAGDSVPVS

B1: chr15:40903593:40903694:+|3pUTR|ENSG00000104142|msi1|FALSE|unique (ssRNA)
RNA: GGGAGUUCUACAGUCCGACGAUCCAGUAGAGGCCCUUCACCUGGAGAAGUCAGAAAUCUGACCCAAUUCCACCCCCUGCCUCUAGCACCUCUUCUGUCCCUGUCAUUCCCCACACACGUCCUGUUCACCUCGAGAGAGAGAGACAACAGAGGAUUGAGCAUCA
B2: chr7:139716074:139716127:-|CDS|ENSG00000064393|msi1_unk|FALSE|overlapping (ssRNA)
RNA: GGGAGUUCUACAGUCCGACGAUCGAAGCAAAACAAGUUUAGCCCCUUGCCCCUCAAAUACAUUCGCCCAGUUCUCCAGCAGGUAGCCACAGCCCUGAUGAAACUCAAAAGCCUAGGUCUUAUCCACGCUGACCUCAAACCAGACAACAGAGGAUUGAGCAUCA
B3: ENSG00000117868:stop:overlap|stop_codon|ENSG00000117868|stop_codon|NA|stop_codon (ssRNA)
RNA: GGGAGUUCUACAGUCCGACGAUCAAGGCUGGACCCAGUGGUAUGACCUCACGGAAGAUGGGACGAGGCCUCAGGCGAUGACAUAGCCGCAGCAGGCAGGAGGCGUCCUCUUCAGCGUAGCUCUCCACCUCUACCCGGAACACACAACAGAGGAUUGAGCAUCA
B4: ENSG00000070961:be:win_3451|CDS|ENSG00000070961|bound_else_gene|NA|bound_elsewhere_windowed (ssRNA)
RNA: GGGAGUUCUACAGUCCGACGAUCAGGAUAGAAGAUUCAGAGCCUCAUAUCCCCCUUAUUGAUGACACUGAUGCCGAAGAUGAUGCUCCUACAAAACGUAACUCCAGUCCUCCACCCUCUCCCAACAAAAAUAACAAUGCUGUUCAACAGAGGAUUGAGCAUCA
B5: chr2:48379045:48379146:+|3pUTR|ENSG00000170802|unk|total|mutant (ssRNA)
RNA: GGGAGUUCUACAGUCCGACGAUCCCUUAUCCUCUUUUCUGAUGCCGCAUAAAAAUUGUCCCGGUUUGAGUUAUAACUGCCAGCCGAUGACCAGUCACAAGUGAACCACUUCUCAGUUGCCAAUCUUUGCUCAUAUUAAAAACACAACAGAGGAUUGAGCAUCA
B6: chr9:24545423:24545649:-|CDS|ENSG00000205442|control|control|control (ssRNA)
RNA: GGGAGUUCUACAGUCCGACGAUCCCUGCCCCUCUCAGCCUUCCAUGGAGUCAAAGGCUGUUUAGAAUGUGACCCCAAAUUUAUAGAGGAUGUUGGCUCCUUGCUGGGAAAUCUGAUACCUUCAGAAGUCCCCGGCCGAACUCACAACAGAGGAUUGAGCAUCA
B7: ENSG00000071537:stop:overlap|stop_codon|ENSG00000071537|stop_codon|NA|stop_codon (ssRNA)
RNA: GGGAGUUCUACAGUCCGACGAUCAUACAUUUGGAGCUCUUGGGGGCAAUCUAAUAGCCCACAUGGUUUUGGUAAGUAGACUUUAGUGGAAGGCUAAUAAUAUUAACAUCAGAAGAAUUUGUGGUUUAUAGCGGCCACAACUUUCAACAGAGGAUUGAGCAUCA
B8: chr19:12791443:12791544:+|5pUTR|ENSG00000171223|unk|FALSE|unique (ssRNA)
RNA: GGGAGUUCUACAGUCCGACGAUCGGGGGGCGCGGGGGCCCGGCUCCGGCGACGGCCAAUCGGAGCGCACUUCCGUGGCUGACUAGCGCGGUAUAAAGGCGUGUGGCUCAGGCUGAGCGGCUGGGACCUUGAGAGCGGCCAGGCCAACAGAGGAUUGAGCAUCA
B9: chr12:12643182:12643283:+|3pUTR|ENSG00000111269|unk|total|mutant (ssRNA)
RNA: GGGAGUUCUACAGUCCGACGAUCCUGGAGUUGUGCACAGCACCGCAGCCCGUGGGCCUGGCUGGGGGUGCAGAAGGGCAGGGCCGUUCUUUCCAUUUCCCCUUGCAGCUACACUUACUUUCUCCCUGACUACCAAAUGGAGUGCAACAGAGGAUUGAGCAUCA
B10: chr6:116593178:116593279:+|3pUTR|ENSG00000111832|unk|FALSE|unique (ssRNA)
RNA: GGGAGUUCUACAGUCCGACGAUCUAUGAUUUUCCUUUCUUUUUUUCUAAGAAAAAAUUAUUUUCAGGAGAAUAUUCUUCUGAUAGCUUUCAUCAUUGAACUUAAUAAACUGACCUUAAAAUUUCAAAUAUAAAAUGUUCAAGGCAACAGAGGAUUGAGCAUCA
B11: chr11:108106880:108106981:+|3pUTR|ENSG00000166266|msi1|FALSE|unique (ssRNA)
RNA: GGGAGUUCUACAGUCCGACGAUCUUAGUGGUAUGGCAAUAAGACACUUCAGAGGCUAUCUUAACCUCUGAAUACCCAUCUUCUAGUUUAAAGACAGAGACAUCCCAUCUGGAAAAUGUUAACUUGUGUUGCCAUCUCGUUGCCCAACAGAGGAUUGAGCAUCA
B12: chr7:130166276:130166377:-|3pUTR|ENSG00000146842|msi1|FALSE|unique (ssRNA)
RNA: GGGAGUUCUACAGUCCGACGAUCUCUCUGAGCCACUGACUCUUCUGAAAUAAAAUACACAUGGGUGUAUGUUACAGACUCUUUAGAUUUAACAGAAAAUGUAGCUGUUAUGAAAUGUAAUUGUAAAAAUAUGUCCCGUAUCUUCAACAGAGGAUUGAGCAUCA
B13: ENSG00000176396:stop:overlap|stop_codon|ENSG00000176396|stop_codon|NA|stop_codon (ssRNA)
RNA: GGGAGUUCUACAGUCCGACGAUCCUGAAGUUAUCAACCCUCUGAUAGAAGAACUUGGUUGCGAUAAGUUUAUCAAUAGAGAAUAGUUAUGUGGUGACACUACUUCAAGAGAACCUCUGCAUUCCAGUCAUACCAAUCCUGCAACAACAGAGGAUUGAGCAUCA
B14: chr3:138622260:138622368:+|CDS|ENSG00000158234|unk|FALSE|unique (ssRNA)
RNA: GGGAGUUCUACAGUCCGACGAUCAUUAGUGGGCAAAGAAACAUUCUAUGUUGGAGCUGCAAAGACAAAAGCGACCAUAAAUAUAGACGCUAUCAGUGGUUUUGCUUAUGAAUAUACUCUGGAAAUUAAUGGGAAAAGUCUCAACAACAGAGGAUUGAGCAUCA
B15: chr1:151291320:151291421:+|3pUTR|ENSG00000143373|unk|FALSE|unique (ssRNA)
RNA: GGGAGUUCUACAGUCCGACGAUCAAUAUUUUGUUAAUUCCUGUCUCUCCAACCUGAAGAAGAAGAGCAUUUGAGGAUUAUUCUAGUUAUUUGCAACCUCCCUUUGGGUUUGGCCCUGGAGUCCUAGUAGAGUGGACCCUCCAUCAACAGAGGAUUGAGCAUCA
B16: chr5:91374913:91375023:-|CDS|ENSG00000113369|unk|FALSE|bound_elsewhere (ssRNA)
RNA: GGGAGUUCUACAGUCCGACGAUCGAGACGUGGAAUGGCAAGUUGCUGAAAAUUCCACCAGUUUCUCCCUCUAUCCUCGACUGUAGUAUAAUCCGCGUGGAAUAUUCACUAAUGGUAUGUACACAUUUAAGAGGUUUUUUCCUUCAACAGAGGAUUGAGCAUCA
B17: chr14:92131016:92131127:+|CDS|ENSG00000165934|unk|FALSE|bound_elsewhere (ssRNA)
RNA: GGGAGUUCUACAGUCCGACGAUCACCCUUUCUGGGGUCCAAGAAGAAUCUGCCCUUUGCUAUCUUCUCCAAGUUGAUGAGUUUAGAUUUUUAUUGGACUGUGGCUGGGAUGAGCACUUUUCUAUGGAUAUUAUUGAUUCCCUGCAACAGAGGAUUGAGCAUCA
B18: chr15:40779088:40779310:-|CDS|ENSG00000104129|control|control|control (ssRNA)
RNA: GGGAGUUCUACAGUCCGACGAUCGAGAGGACCCAGAAACUUGAUGAGAAAAGGAAGAAAGUGAAGCUUGGUAGGUGCCAUCAUAGUGCUCGGUGGCCUGUGGUUUCCUGUGGUCAUUUUCAUUCAUCUCCCUCACCUGAAGCUCAACAGAGGAUUGAGCAUCA
B19: chr1:55154109:55154210:-|CDS|ENSG00000162402|msi1|FALSE|unique (ssRNA)
RNA: GGGAGUUCUACAGUCCGACGAUCCCUUAGUGAUGCAUAUGCAGUGAAAGAAGCAAUCAAGAGGAGCUACAUCAUCAAGUGCAUAGAAGAUAUUAAGAGGGUUGGUUUCAGCUUUUAUCUGAUUUUGUUGUUAGAGCAACAGUACAACAGAGGAUUGAGCAUCA
B20: chr12:3284911:3285012:+|3pUTR|ENSG00000011105|msi1|total|mutant (ssRNA)
RNA: GGGAGUUCUACAGUCCGACGAUCGGAGGACAGAACCGUUGGCAUUAUCAGGAUUCGUGUUUUGUGGGGGUGGGAGUGGAGAGCCGGGUGGUCUUGUGAGUUGUGCAGGGUGAAGACCGCUUCCCUGAGACAGGGGCAGUGGUGCAACAGAGGAUUGAGCAUCA
B21: chr2:85598546:85599075:-|three_prime_utr|ENSG00000168890|control|control|control (ssRNA)
RNA: GGGAGUUCUACAGUCCGACGAUCAAGCCAGACCACUGGGGUUUCCUGCUGCAGGAAUUGGGGGCUGGGAACAGCAGAGGGGAUAGAAGUCUGGUGGAGGUGGAGUGGGCACGCCUUAGCCUACGGAAAGGCCCAUUUCUGGGCCAACAGAGGAUUGAGCAUCA
B22: chr1:109062750:109062855:-|3pUTR|ENSG00000197780|unk|total|mutant (ssRNA)
RNA: GGGAGUUCUACAGUCCGACGAUCGCUUUCAGCCGCAGGAAUGGCAUUGUUUAAAAAGCUGAUGGCAGGGUAAGCAUUUGGGUCCGUGUUUUAUUAACAUAUUUGUAAGUACUUGUUCAUUGUGGAAAUGUGUCCUUGACUAAACAACAGAGGAUUGAGCAUCA

Molecular target: T1, UNK ZnF1-6 (called full-length)
Assay: nsRBNS (natural sequence RNA bind-n-seq); RBNS binding buffer (assumed for nsRBNS): 25 mM Tris pH 7.5, 150 mM KCl, 3 mM MgCl2, 0.01% Triton X-100, 500 ug/ml BSA, 20 U/ml SUPERase-In, 4 C; UNK is unkempt and MSI1 is Musashi-1; names of the RNAs are library labels; protein concentration not given here; high values mean tight binding

Binder | binding signal
B1 | 0.779 enrichment R
B2 | 0.979 enrichment R
B3 | 0.843 enrichment R
B4 | 0.813 enrichment R
B5 | 0.459 enrichment R
B6 | 0.901 enrichment R
B7 | 0.418 enrichment R
B8 | 1.33 enrichment R
B9 | 0.949 enrichment R
B10 | 1.13 enrichment R
B11 | 0.34 enrichment R
B12 | 0.933 enrichment R
B13 | 0.882 enrichment R
B14 | 0.308 enrichment R
B15 | 0.887 enrichment R
B16 | 0.305 enrichment R
B17 | 0.374 enrichment R
B18 | 0.783 enrichment R
B19 | 0.456 enrichment R
B20 | 1.21 enrichment R
B21 | 1.09 enrichment R
B22 | 0.702 enrichment R
